Assay results as given in ChEMBL document CHEMBL4888484, “Replenishing the malaria drug discovery pipeline: Screening and hit evaluation of the MMV Hit Generation Library 1 (HGL1) against asexual blood stage Plasmodium falciparum ,using a nano luciferase reporter read-out” (2022).
Among all 150,000 compounds or so, about 540 (0.36%) showed an effect of 50% or more. Some of the results follow.

system: Plasmodium falciparum; test: Primary screen in NF54 nanoGlo assay, in single point, at 2uM, 72h; a lower Z score goes with more inhibition; type: functional, Erythrocyte; settings: timepoint 72 hour

SMILES | % Inhibition [%] | Z score
O=S(=O)(c1cccc(Cl)c1)N1CN(Cc2ccc3c(c2)OCO3)c2nc3ccccc3nc21 | 28 | -3.17
CC[C@H](NC(=O)CCCN1CCCC1)c1cccc(C)n1 | -9 | 1
CN1CCN(CCC(=O)NC[C@]2(c3ccccc3)CC2(C)C)CC1 | 1 | -0.2
CS(=O)(=O)c1ccc(C(=O)Nc2nccc3sccc23)cc1 | -2 | 0.42
O=C(CN1CC[C@H](O)C1)N1c2ccccc2CCc2ccccc21 | -7 | 0.73
CCc1oc(C(=O)O)cc1CN1CCOC[C@@H]1CC1CCOCC1 | -14 | 1.37
O=C(C1CCCC1)N1CCN(Cc2ccccc2)CC1 | -8 | 1.49
CC(C)[C@@H]1CN(c2ncccc2C(N)=O)CCCN1CC1CC1 | -4 | 0.95
CCc1nc([C@H]2CN(C(=O)COc3ccc(Cl)cc3)CC23CCCC3)no1 | -17 | 2.18
O=C(Nc1ncc(Cc2ccc(F)cc2F)s1)[C@H]1CCOC1 | -6 | 0.97
Cc1cc(N[C@]2(c3ccccc3)OC(=O)c3ccccc32)no1 | -12 | 1.38
O=S(=O)(Cl)c1ccc2oncc2c1 | -1 | 0.17
O=C(CNC(=O)C1CCCCC1)Nc1nc2ccccc2s1 | -5 | 0.42
Cc1ccc(-c2cc(C(=O)N3C[C@H](O)CO3)[nH]n2)s1 | -6 | 1.09
Cc1ccc([C@H](C)NC(=O)CCC2CCNCC2)cc1F | -15 | 2.47
CCCc1noc(CCc2scnc2C)n1 | -12 | 1.19
CCc1nnc(CN2CCCN(c3cccc(Cl)c3C)CC2)o1 | 4 | -0.6
COc1ccc(CNC(=O)c2c(C)noc2-c2ccco2)cc1 | -4 | 0.53
CN(C(=O)CC1CCCc2ccccc21)C1CCCC1S(C)(=O)=O (stereo unspecified) | -9 | 1.25
O=C(NC1(CC2CC2)CCN(S(=O)(=O)Cc2ccccc2)CC1)c1ccccc1 | -7 | 1.35
Cc1ccc2c(C(=O)N[C@@H](C)Cc3ccncc3)cc(C)nc2c1 | -4 | 0.72

SMILES | % Inhibition [%] | Z score
CC(C)(C)C(=O)N1CCN(S(=O)(=O)c2cccc3nonc23)CC1 | -6 | 0.73
COc1cc(OC)cc(-c2nc(-c3cn(-c4cccc(Cl)c4)nn3)no2)c1 | -10 | 2.02
COc1ccccc1N1CCN(/C(=N\c2ccccc2)NC(=O)c2ccc(Br)cc2)CC1 | -1 | 0.11
COCCNC1=Nc2ccccc2N[C@]12CCCN(C(=O)c1ccc(C#N)cc1)C2 | 24 | -2.77
COc1cccc(CN2CC(C(=O)N3CCCCC3C)CC2=O)c1 (stereo unspecified) | -2 | 0.3
Cc1ccc(CCNCc2c(C(=O)N3C[C@@H](C)O[C@@H](C)C3)nc3ccc(Cl)cn23)cc1 | -8 | 1.18
Cc1cccc2c1[C@](C)(c1ccccc1)CC(C)(C)N2C(=O)Cc1ccccc1 | 3 | -0.67
C[C@@H](c1ccon1)N(C)C(=O)CCc1cccc(F)c1 | -5 | 0.97
COC[C@H]1CCCN1S(=O)(=O)NCCCC1CCCC1 | -3 | 0.62
Cc1cc(C)c(C#N)c(-c2cccc(C(=O)N3CC=C[C@@H]3C(C)C)c2)n1 | -13 | 1.18
O=C(C1CCN(S(=O)(=O)c2ccc(-c3noc(C4CCCC4)n3)cc2)CC1)N1CCCC1 | -17 | 2.04
COc1ccc(F)c(CN2CCC[C@@]3(CCN(C(=O)CN4CCCC4=O)C3)C2)c1 | -15 | 1.33
CN1CCN(c2ccc(-c3nc(C4CC4)nn3CC(F)(F)F)cc2)CC1 | 0 | 0.08
CC1(O)CC(C(=O)N2CC[C@@H](O)[C@H]2c2ccc(Cl)cc2)C1 (stereo partly specified) | 5 | -0.69
OC[C@H]1CC[C@@H](N[C@H]2CCC23CCC3)CC1 | -16 | 1.61
CNC(=O)c1ccnc(N2CCC3(CC2)CC(=O)N(Cc2ccccc2)C3)c1 | -22 | 2.43
CC(C(=O)Nc1ncccn1)N1CCCCC1Cn1cccn1 (stereo unspecified) | 1 | -0.24
Cc1cc(C(=O)NCc2ccccn2)ccc1N(C)S(=O)(=O)c1ccccc1 | -15 | 1.83
Cc1cc(N)n(CC(=O)N2CCC[C@H](c3nnc[nH]3)C2)n1 | -8 | 1.01
CCc1ccc(NCC(=O)NC(=O)NC)c(C(=O)OC)c1 | -43 | 5.1
CC(C)(C)[C@H](NC(=O)c1cscn1)C(F)(F)F | -8 | 0.89

SMILES | % Inhibition [%] | Z score
Cc1ccc([C@H](C)NCc2ncc(-c3ccccc3)s2)s1 | 7 | -1.03
Cn1cc(C(=O)N2CC(COc3ccccc3)C2)nn1 | -2 | 0.34
COc1ccc(S(=O)(=O)N(C)c2cccc(C(=O)N3CCCC3)c2)cc1 | 9 | -1.55
CCc1cccc(C)c1NC(=O)c1ccnc(-c2ccsc2)c1 | -6 | 0.83
CC1CN(C(C)CNCc2cn(C)nc2-c2ccncc2)CC(C)O1 (stereo unspecified) | -2 | 0.17
CN(C[C@]1(O)CCc2ccccc21)C(=O)c1cc(C(N)=O)cs1 | -3 | 0.46
Cc1c(C)n(-c2ccccc2)c2nc(C(=O)N[C@@H](C)c3ccccc3)nc(N3CCCCC3)c12 | -8 | 1.23
CN(C)C(=O)c1ccc(CNC(=O)N(C)C2Cc3ccccc3C2)o1 | -7 | 1.12
O=C(O)[C@H]1CN(S(=O)(=O)CCc2c(F)cccc2F)C[C@@H]1c1ccccc1 | -24 | 3.03
Cn1cc(C(=O)N2CCC(Oc3cccc(C(F)(F)F)c3)CC2)ccc1=O | -11 | 1.62
Cc1ccc2c(=O)c(-c3nc(-c4ccccc4C)no3)cn(CC(=O)N3CCc4ccccc4C3)c2n1 | -2 | 0.15
CC1CN(CC2CCCCO2)C(C)CO1 (stereo unspecified) | 7 | -0.83
O=C(c1cc(F)c(F)c(O)c1F)N1CCCCC1C1CCNC1 (stereo unspecified) | -6 | 1.15
O=C(NC(c1ccccc1)c1ccccc1)N1CC(N2C(=O)CCC2=O)C1 | 1 | -0.12
CCOC(=O)C1(Cc2ccc(Cl)cc2)CCN(C2CCCC2)CC1 | 1 | -0.19
C[C@H]1CN(C(=O)N(C)C)CCC1(F)F | -4 | 0.51
COc1ccc(CNC(=O)[C@H]2CN(C(=O)c3ccncc3)CC23CCCCC3)c(OC)c1 | 44 | -4.96
CC(C)=CCN1C[C@@H]2CC[C@H]1CN(C(=O)c1ccc(N3CCCC3=O)cc1)C2 | 4 | -0.44
CC[C@@H](CO)N1CCN(C(=O)Nc2ccc(C)s2)CC1 | -13 | 1.06
O=C(COC1CCCCC1)NCCCNC(=O)c1cccc(O)c1 | -21 | 4.25
NCCNCCOCCOc1cccc(Cl)c1Cl | -9 | 1.17

SMILES | % Inhibition [%] | Z score
CCC(CC)n1nc(C(=O)NCC23CCCN2CCC3)cc1C | -15 | 2.13
CCC(C)NC(=O)C1CCCN1c1nnc(N2CCCC2=O)s1 (stereo unspecified) | -6 | 0.95
COc1ccc(-c2noc(-c3cnn(CC4CC4)c3)n2)cc1OC | -2 | 0.36
CC[C@H]1CCC[C@@H](C)N1C(=O)c1occc1C(C)C | -4 | 0.59
COc1ccc(CCN(Cc2ccco2)C(=O)CN(C(=O)c2ccccc2OC)C(C)C)cc1OC | 8 | -1.04
CC(C)CC1(CNC(=O)c2ccncc2O)CCC1 | 3 | -0.35
COc1cc(-c2nc(CN3CCC[C@](C)(O)C3)c(C)o2)cc2c1OCO2 | 7 | -0.94
CC(C)C1CCC(C(=O)N[C@@H](Cc2ccccc2)C(=O)Nc2cnn(C)c2)CC1 (stereo partly specified) | 1 | -0.19
Cn1ccnc1CC[C@H]1CCCCN1C(=O)c1ccc2ncsc2c1 | -12 | 2.2
Cc1n[nH]c(C(=O)N[C@H]2C[C@H](c3cc(=O)[nH]cn3)C2)c1Cl | -14 | 2.86
CO[C@H]1COC[C@@H]1Nc1ncnc(Oc2cccnc2C)c1C | -4 | 0.82
Cc1ccc2c(c1)Oc1cc(Oc3ccc(Cl)cc3)c(S(=O)(=O)N3CCCCC3)cc1C(=O)N2 | -4 | 0.54
O=C([C@H]1C2CCC(CC2)[C@@H]1C(F)(F)F)N1CCn2c(n[nH]c2=O)C1 | 0 | 0.02
COc1ccc(-c2ccno2)cc1S(=O)(=O)N1C[C@H]2CC=CC[C@H]2C1 | -7 | 1.48
C[C@@H](c1ccccc1)n1ccc(NC(=O)c2[nH]nc3c2CCCC3)n1 | -6 | 1.01
c1ccc2cc(-c3ccc4ccccc4n3)ccc2c1 | 41 | -1.59
CCCOc1ccc([C@H]2OCCn3c(-c4ccccc4)c4c(=O)n(C)c(=O)n(C)c4c32)cc1 | 5 | -0.89
CCOC(=O)C1CCCN(C2CCN(C3CCC(=O)N(Cc4ccc(Cl)cc4)CC3)CC2)C1 (stereo unspecified) | -7 | 0.87
CCC[C@H](O)C(=O)N1CCC2(CCN(C)C2=O)CC1 | -2 | 0.37
CC(C)COc1ncccc1C(=O)NCc1cccc(-c2nc(-c3ccncc3)no2)c1 | 1 | -0.18
